Reference: US7423058B2, “Inhibitors of hepatitis C virus NS3 protease” (Schering Corporation, priority 2004, dated 2008)

molecular target: Recombinant heterodimeric HCV NS3/NS4A protease (strain 1a) (Hepatitis C virus genotype 1a, UniProt P27958); experiment: Spectrophotometric assay for HCV protease inhibitory activity (chromogenic ester substrates); assay type: biochemical; conditions: Table 1: Ketones; read-out: Ki* Range

Compound | Ki
CNC(=O)C(=O)C(CCC(F)(F)F)NC(=O)[C@@H]1[C@@H]2[C@H](CN1C(=O)[C@@H](NC(=O)N[C@H](C(=O)C(C)C)C(C)C)C(C)(C)C)C2(C)C (some centres unmarked) [compound 4162] | < 75 nM
C#CCCCC(NC(=O)[C@@H]1[C@@H]2[C@H](CN1C(=O)[C@@H](NC(=O)N[C@H](C(=O)c1ccccc1)C(C)C)C(C)(C)C)C2(C)C)C(=O)C(=O)NCC=C (some centres unmarked) [compound 4201] | 76 to 250 nM
CC(C)[C@@H](NC(=O)N[C@H](C(=O)N1C[C@H]2[C@@H]([C@H]1C(=O)NC(CC1CC1)C(=O)C(N)=O)C2(C)C)C(C)(C)C)C(=O)c1ccccc1 (some centres unmarked) [compound 4184] | 76 to 250 nM
CCNC(=O)C(=O)C(CC1CC1)NC(=O)[C@@H]1[C@@H]2[C@H](CN1C(=O)[C@@H](NC(=O)N[C@H](C(=O)C(C)C)C(C)C)C(C)(C)C)C2(C)C (some centres unmarked) [compound 4196] | 76 to 250 nM
C=CCNC(=O)C(=O)C(CC1CC1)NC(=O)[C@@H]1[C@@H]2[C@H](CN1C(=O)[C@@H](NC(=O)N[C@H](C(=O)c1ccccc1)C(C)C)C(C)(C)C)C2(C)C (some centres unmarked) [compound 4153] | < 75 nM
CCC(CC)[C@H](NC(=O)N[C@H](C(=O)N1C[C@H]2[C@@H]([C@H]1C(=O)NC(CC1CC1)C(=O)C(N)=O)C2(C)C)C(C)(C)C)C(=O)c1ccccc1 (some centres unmarked) [compound 4076] | < 75 nM
CCNC(=O)C(=O)C(CC1CC1)NC(=O)[C@@H]1[C@@H]2[C@H](CN1C(=O)[C@@H](NC(=O)N[C@H](C(=O)C1CC1)C1CCCCC1)C(C)(C)C)C2(C)C (some centres unmarked) [compound 4195] | 76 to 250 nM
C=C(F)CNC(=O)C(=O)C(CCC)NC(=O)[C@@H]1[C@@H]2[C@H](CN1C(=O)[C@@H](NC(=O)N[C@H](C(=O)c1ccccn1)C(C)C)C(C)(C)C)C2(C)C (some centres unmarked) [compound 4199] | 76 to 250 nM
CC(C)(C)[C@H](NC(=O)N[C@H](C(=O)C1CC1)C1CCC1)C(=O)N1C[C@H]2[C@@H]([C@H]1C(=O)NC(CC1CC1)C(=O)C(N)=O)C2(C)C (some centres unmarked) [compound 4048] | < 75 nM
C=CCNC(=O)C(=O)C(CCC)NC(=O)[C@@H]1[C@@H]2[C@H](CN1C(=O)[C@@H](NC(=O)N[C@H](C(=O)c1nccs1)C(C)(C)C)C(C)(C)C)C2(C)C (some centres unmarked) [compound 4191] | 76 to 250 nM
CC(C)[C@H](NC(=O)N[C@H](C(=O)N1C[C@H]2[C@@H]([C@H]1C(=O)NC(CC1CC1)C(=O)C(N)=O)C2(C)C)C(C)(C)C)C(=O)c1ccccc1N(C)C (some centres unmarked) [compound 4136] | < 75 nM
CC(C)(C)[C@H](NC(=O)N[C@H](C(=O)N1C[C@H]2[C@@H]([C@H]1C(=O)NC(CC1CC1)C(=O)C(N)=O)C2(C)C)C(C)(C)C)C(=O)CCc1ccccc1 (some centres unmarked) [compound 4097] | < 75 nM
CCCNC(=O)C(=O)C(CCC)NC(=O)[C@@H]1[C@@H]2[C@H](CN1C(=O)[C@@H](NC(=O)N[C@H](C(=O)C1CC1)C1CCCCC1)C(C)(C)C)C2(C)C (some centres unmarked) [compound 4161] | < 75 nM

same assay, conditions: Table 2: Oximes; read-out: Ki* Range

Compound | Ki
CO/N=C(/c1ccccc1)[C@@H](NC(=O)N[C@H](C(=O)N1C[C@H]2[C@@H]([C@H]1C(=O)NC(CC1CC1)C(=O)C(N)=O)C2(C)C)C(C)(C)C)C(C)C (some centres unmarked) [compound 4294] | 76 to 250 nM
CO/N=C(/C1CC1)[C@@H](NC(=O)N[C@H](C(=O)N1C[C@H]2[C@@H]([C@H]1C(=O)NC(CC1CC1)C(=O)C(N)=O)C2(C)C)C(C)(C)C)C1CCCCC1 (some centres unmarked) [compound 4297] | 76 to 250 nM

same assay, conditions: Table 3, Esters; read-out: Ki* Range

Compound | Ki
CC(C)[C@H](NC(=O)N[C@H](C(=O)N1C[C@H]2[C@@H]([C@H]1C(=O)NC(CC1CC1)C(=O)C(=O)NCc1ccccn1)C2(C)C)C(C)(C)C)C(=O)OC(C)(C)C (some centres unmarked) [compound 4610] | 76 to 250 nM
CC(C)(C)OC(=O)[C@H](NC(=O)N[C@H](C(=O)N1C[C@H]2[C@@H]([C@H]1C(=O)NC(CC1CCC1)C(=O)C(N)=O)C2(C)C)C(C)(C)C)c1ccccc1 (some centres unmarked) [compound 4500] | < 75 nM
C[C@@H](OC(=O)[C@@H](NC(=O)N[C@H](C(=O)N1C[C@H]2[C@@H]([C@H]1C(=O)NC(CC1CC1)C(=O)C(N)=O)C2(C)C)C(C)(C)C)C(C)(C)C)c1ccccc1 (some centres unmarked) [compound 4369] | < 75 nM
CC(C)(C)OC(=O)[C@@H](NC(=O)N[C@H](C(=O)N1C[C@H]2[C@@H]([C@H]1C(=O)NC(CC1CC1)C(=O)C(=O)NCc1ccccc1)C2(C)C)C(C)(C)C)C(C)(C)C (some centres unmarked) [compound 4608] | 76 to 250 nM
CC(C)[C@H](NC(=O)N[C@H](C(=O)N1C[C@H]2[C@@H]([C@H]1C(=O)NC(CC1CC1)C(=O)C(N)=O)C2(C)C)C(C)(C)C)C(=O)OC(C)(C)C1CC1 (some centres unmarked) [compound 4316] | < 75 nM
CCC(CC)[C@H](NC(=O)N[C@H](C(=O)N1C[C@H]2[C@@H]([C@H]1C(=O)NC(CC1CC1)C(=O)C(N)=O)C2(C)C)C(C)(C)C)C(=O)OCC1CC1 (some centres unmarked) [compound 4372] | < 75 nM
CC(C)(C)OC(=O)[C@@H](NC(=O)N[C@H](C(=O)N1C[C@H]2[C@@H]([C@H]1C(=O)NC(CC1CCC1)C(=O)C(N)=O)C2(Cl)Cl)C1Cc2ccccc2C1)C(C)(C)C (some centres unmarked) [compound 4391] | < 75 nM
CC(C)(C)[C@H](NC(=O)N[C@H](C(=O)N1C[C@H]2[C@@H]([C@H]1C(=O)NC(CC1CCC1)C(=O)C(N)=O)C2(C)C)C(C)(C)C)C(=O)OC1CCCCC1 (some centres unmarked) [compound 4580] | 76 to 250 nM
CC(C)(C)OC(=O)C(CC(F)(F)F)NC(=O)N[C@H](C(=O)N1C[C@H]2[C@@H]([C@H]1C(=O)NC(CC1CCC1)C(=O)C(N)=O)C2(C)C)C(C)(C)C (some centres unmarked) [compound 4376] | < 75 nM
CC(C)(C)[C@H](NC(=O)N[C@H](C(=O)N1C[C@H]2[C@@H]([C@H]1C(=O)NC(CC1CCC1)C(=O)C(N)=O)C2(C)C)C1CCCCC1)C(=O)OCc1ccco1 (some centres unmarked) [compound 4300] | < 75 nM
C=CCNC(=O)C(=O)C(CC1CC1)NC(=O)[C@@H]1[C@@H]2[C@H](CN1C(=O)[C@@H](NC(=O)N[C@H](C(=O)OC(C)(C)C)C(C)(C)C)C1(C)CCCCC1)C2(C)C (some centres unmarked) [compound 4554] | 76 to 250 nM
C=CCNC(=O)C(=O)C(CCC(F)(F)F)NC(=O)[C@@H]1[C@@H]2[C@H](CN1C(=O)[C@@H](NC(=O)N[C@H](C(=O)OCc1ccccc1)C(C)(C)C)C(C)(C)C)C2(C)C (some centres unmarked) [compound 4432] | < 75 nM
CC[C@H](NC(=O)N[C@H](C(=O)N1C[C@H]2[C@@H]([C@H]1C(=O)NC(CC1CC1)C(=O)C(N)=O)C2(C)C)C(C)(C)C)C(=O)OC(C)(C)C (some centres unmarked) [compound 4377] | < 75 nM
CC(C)[C@H](NC(=O)N[C@H](C(=O)N1C[C@H]2[C@@H]([C@H]1C(=O)NC(CC1CCC1)C(=O)C(N)=O)C2(C)C)C(C)(C)C)C(=O)O[C@H](C)c1ccccc1 (some centres unmarked) [compound 4386] | < 75 nM
C=CCNC(=O)C(=O)C(CCC(F)(F)F)NC(=O)[C@@H]1[C@@H]2[C@H](CN1C(=O)[C@@H](NC(=O)N[C@H](C(=O)OCC1CC1)C(C)C)C(C)(C)C)C2(C)C (some centres unmarked) [compound 4460] | < 75 nM
COC(=O)C1(NC(=O)N[C@H](C(=O)N2C[C@H]3[C@@H]([C@H]2C(=O)NC(CC2CC2)C(=O)C(N)=O)C3(C)C)C(C)(C)C)CCC(OC(C)=O)CC1 (some centres unmarked) [compound 4650] | > 250 nM
C[C@@H](OC(=O)C1(NC(=O)N[C@H](C(=O)N2C[C@H]3[C@@H]([C@H]2C(=O)NC(CC2CC2)C(=O)C(N)=O)C3(C)C)C(C)(C)C)CCCCC1)c1ccccc1 (some centres unmarked) [compound 4544] | 76 to 250 nM
CC(C)(C)[C@H](NC(=O)N[C@H](C(=O)N1C[C@H]2[C@@H]([C@H]1C(=O)NC(CC1CCC1)C(=O)C(N)=O)C2(C)C)C(C)(C)C)C(=O)OC1CCCC1 (some centres unmarked) [compound 4422] | < 75 nM
CC(C)(C)[C@@H](NC(=O)N[C@@H](C(=O)N1C[C@H]2[C@@H]([C@H]1C(=O)NC(CC1CC1)C(=O)C(N)=O)C2(C)C)C(C)(C)C)C(=O)OC1Cc2ccccc2C1 (some centres unmarked) [compound 4420] | < 75 nM
C=CCNC(=O)C(=O)C(CCC)NC(=O)[C@@H]1[C@@H]2[C@H](CN1C(=O)[C@@H](NC(=O)N[C@H](C(=O)OCc1ccc(F)cc1)C(C)C)C(C)(C)C)C2(C)C (some centres unmarked) [compound 4462] | < 75 nM
C[C@H](OC(=O)[C@@H](NC(=O)N[C@H](C(=O)N1C[C@H]2[C@@H]([C@H]1C(=O)NC(CC1CCC1)C(=O)C(N)=O)C2(C)C)C1CCCCC1)C(C)(C)C)c1ccccc1 (some centres unmarked) [compound 4399] | < 75 nM
CC(C)[C@H](NC(=O)N[C@H](C(=O)N1C[C@H]2[C@@H]([C@H]1C(=O)NC(CC1CCC1)C(=O)C(N)=O)C2(C)C)C(C)(C)C)C(=O)OC1CCCC1 (some centres unmarked) [compound 4384] | < 75 nM

same assay, conditions: Table 6; read-out: Ki* range

Compound | Ki
CC(C)(C)[C@H](NC(=O)NC1(Cc2nccs2)CCCCC1)C(=O)N1C[C@H]2[C@@H]([C@H]1C(=O)NC(CC1CCC1)C(=O)C(N)=O)C2(C)C (some centres unmarked) [compound 4926] | < 75 nM
CC(C)(C)[C@H](NC(=O)NC1(Cc2ccccn2)CCCCC1)C(=O)N1C[C@H]2[C@@H]([C@H]1C(=O)NC(CCC(F)(F)F)C(=O)C(N)=O)C2(C)C (some centres unmarked) [compound 4947] | < 75 nM
C=CCNC(=O)C(=O)C(CCC)NC(=O)[C@@H]1[C@@H]2[C@H](CN1C(=O)[C@@H](NC(=O)N[C@H](Cc1nccs1)C(C)C)C(C)(C)C)C2(C)C (some centres unmarked) [compound 4973] | 76 to 250 nM
CC(C)(C)[C@H](NC(=O)NC1(Cc2cccs2)CCCCC1)C(=O)N1C[C@H]2[C@@H]([C@H]1C(=O)NC(CC1CC1)C(=O)C(N)=O)C2(C)C (some centres unmarked) [compound 4922] | < 75 nM
COc1cccc(CC2(NC(=O)N[C@H](C(=O)N3C[C@H]4[C@@H]([C@H]3C(=O)NC(CC3CC3)C(=O)C(N)=O)C4(C)C)C(C)(C)C)CCCCC2)c1 (some centres unmarked) [compound 4945] | < 75 nM
CC(C)(C)[C@H](NC(=O)NC1(Cc2nccs2)CCCCC1)C(=O)N1C[C@H]2[C@@H]([C@H]1C(=O)NC(CC1CC1)C(=O)C(N)=O)C2(C)C (some centres unmarked) [compound 4925] | < 75 nM
CC(=O)N1CCCC(Cc2ccccc2)(NC(=O)N[C@H](C(=O)N2C[C@H]3[C@@H]([C@H]2C(=O)NC(CC2CCC2)C(=O)C(N)=O)C3(C)C)C(C)(C)C)C1 (some centres unmarked) [compound 4975] | 76 to 250 nM

same assay, conditions: Table 8; read-out: Ki*

Compound | Ki
C=CCNC(=O)C(=O)C(CCC)NC(=O)[C@@H]1[C@@H]2[C@H](CN1C(=O)[C@@H](NC(=O)N[C@H](C(=O)C(C)C)C(C)C)C(C)(C)C)C2(C)C (some centres unmarked) | 30 nM
CC(C)[C@H](NC(=O)N[C@H](C(=O)N1C[C@H]2[C@@H]([C@H]1C(=O)NC(CC1CC1)C(=O)C(N)=O)C2(C)C)C(C)(C)C)C(=O)N1CCCCC1 (some centres unmarked) | 17 nM
C#CCCC(NC(=O)[C@@H]1[C@@H]2[C@H](CN1C(=O)[C@@H](NC(=O)N[C@H](C(=O)C1CC1)C1CCCCC1)C(C)(C)C)C2(C)C)C(=O)C(=O)NCC=C (some centres unmarked) [drawing 1480] | 9 nM
